# Assay results as given in patent publication US20230250147A1, “GLP-1R AGONISTIC PEPTIDES WITH REDUCED ACTIVITY” (SANOFI, priority 2020, published 2023).
# Target: T1, Human GLP-1R (Homo sapiens, UniProt P43220)
# T1 construct: expressed in transfected cells; host or cells: HEK-293
# Experiment: HTRF cAMP assay in HEK-293 cells, human GLP-1R
# Type: cell-based
# Description: Recombinant HEK-293 cells were grown in T175 culture flasks placed at 37° C. to near confluence in medium (DMEM with 10% FBS) and collected in 2 mL vials in cell culture medium containing 10% DMSO in concentrations of 1-5×10^7 cells/mL. Each vial contained 1.8 mL cell suspension. The vials were slowly frozen to −80° C. in an isopropanol chamber, and then transferred to liquid nitrogen for long term storage.
# Prior to their use, frozen cells were thawed quickly at 37° C., washed with 20 mL cell buffer (1×HBSS; 20 mM HEPES, 0.1% BSA) and centrifuged for 5 minutes at 900 rpm. Cells were resuspended in assay buffer (cell buffer plus 2 mM IBMX) and adjusted to a cell density of 1×10^6 cells/mL. For measurement, 5 μL cell suspension (final 5×10^3 cells/well) and 5 μL of test compound were added to a well of a 384-well plate, followed by incubation for 30 minutes at room temperature. […] The cAMP content of cells was determined using a kit from Cisbio Corp. (cat. no. 62AM4PEC) based on Homogenous Time Resolved Fluorescence (HTRF).
# T1 sequence (P43220 24-463): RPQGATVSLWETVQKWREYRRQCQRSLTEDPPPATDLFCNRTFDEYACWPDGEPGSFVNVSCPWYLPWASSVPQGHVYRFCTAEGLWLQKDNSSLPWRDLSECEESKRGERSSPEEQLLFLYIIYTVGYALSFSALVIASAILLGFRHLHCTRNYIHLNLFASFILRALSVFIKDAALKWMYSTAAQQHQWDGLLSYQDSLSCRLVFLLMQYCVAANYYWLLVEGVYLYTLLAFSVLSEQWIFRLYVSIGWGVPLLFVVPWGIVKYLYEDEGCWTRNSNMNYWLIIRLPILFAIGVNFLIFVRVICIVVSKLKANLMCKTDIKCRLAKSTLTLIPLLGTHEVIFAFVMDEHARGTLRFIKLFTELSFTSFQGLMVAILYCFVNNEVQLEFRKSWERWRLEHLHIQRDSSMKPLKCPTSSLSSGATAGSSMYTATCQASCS
row,Molecule,EC50
1,"124 (protein, Fusion Protein) HGEGTFTSDKSKLLEKRLAHLFIEWLIAGGHSKGKPPPKGGGGGGGSGGGGSGGGGSA[… human IgG4 Fc with changes …]GGGSGSAHPIPDSSPLLQFGGQVRQRYLYTDDACQTEAHLEIREDGTVGGAADQSPESLLQLKALKPGVIQILGVKTSRFLCQRPDGALYGSLHFDPEACSFRELLLEDGYNVYQSEAHGLPLHLPGCKSPHRDPAPRGPARFLPLPGLPPAPPEPPGILAPQPPDVGSSDPLSMVGSQGRSPSYAS",0.0106 nM
2,"133 (protein, Fusion Protein) HGEGTFTSDKSQLLEKRLAHLFIEWLIKGGHSKQKPPPKGGGGGGGSGGGGSGGGGSA[… human IgG4 Fc with changes …]GGGSGSAHPIPDSSPLLQFGGQVRQRYLYTDDACQTEAHLEIREDGTVGGAADQSPESLLQLKALKPGVIQILGVKTSRFLCQRPDGALYGSLHFDPEACSFRELLLEDGYNVYQSEAHGLPLHLPGCKSPHRDPAPRGPARFLPLPGLPPAPPEPPGILAPQPPDVGSSDPLSMVGSQGRSPSYAS",0.0134 nM
3,"144 (protein, Fusion Protein) HGEGTFTSDKSQLLEKRLAHLFIEWLIKGGPSSIKPPPKGGGGGGGSGGGGSGGGGSA[… human IgG4 Fc with changes …]GGGSGSAHPIPDSSPLLQFGGQVRQRYLYTDDACQTEAHLEIREDGTVGGAADQSPESLLQLKALKPGVIQILGVKTSRFLCQRPDGALYGSLHFDPEACSFRELLLEDGYNVYQSEAHGLPLHLPGCKSPHRDPAPRGPARFLPLPGLPPAPPEPPGILAPQPPDVGSSDPLSMVGSQGRSPSYAS",0.0162 nM
4,"136 (protein, Fusion Protein) HGEGTFTSDKSKLLEKRLAHLFIEWLLAGGHSKGKPPPKGGGGGGGSGGGGSGGGGSA[… human IgG4 Fc with changes …]GGGSGSAHPIPDSSPLLQFGGQVRQRYLYTDDACQTEAHLEIREDGTVGGAADQSPESLLQLKALKPGVIQILGVKTSRFLCQRPDGALYGSLHFDPEACSFRELLLEDGYNVYQSEAHGLPLHLPGCKSPHRDPAPRGPARFLPLPGLPPAPPEPPGILAPQPPDVGSSDPLSMVGSQGRSPSYAS",0.0118 nM
5,"135 (protein, Fusion Protein) HGEGTFTSDKSQLLEERLVHLFIEWLIAGGHSSGKLPPKGGGGGGGSGGGGSGGGGSA[… human IgG4 Fc with changes …]GGGSGSAHPIPDSSPLLQFGGQVRQRYLYTDDACQTEAHLEIREDGTVGGAADQSPESLLQLKALKPGVIQILGVKTSRFLCQRPDGALYGSLHFDPEACSFRELLLEDGYNVYQSEAHGLPLHLPGCKSPHRDPAPRGPARFLPLPGLPPAPPEPPGILAPQPPDVGSSDPLSMVGSQGRSPSYAS",0.0115 nM
6,"142 (protein, Fusion Protein) HGEGTFTSDKSQLLEKRLAHLFIEWLIAGGHKSGKYSPKGGGGGGGSGGGGSGGGGSA[… human IgG4 Fc with changes …]GGGSGSAHPIPDSSPLLQFGGQVRQRYLYTDDACQTEAHLEIREDGTVGGAADQSPESLLQLKALKPGVIQILGVKTSRFLCQRPDGALYGSLHFDPEACSFRELLLEDGYNVYQSEAHGLPLHLPGCKSPHRDPAPRGPARFLPLPGLPPAPPEPPGILAPQPPDVGSSDPLSMVGSQGRSPSYAS",0.0129 nM
7,"127 (protein, Fusion Protein) HGEGTFTSDKSQLLEKRLAHLFIEWLIKGGHSSGRPPPKGGGGGGGSGGGGSGGGGSA[… human IgG4 Fc with changes …]GGGSGSAHPIPDSSPLLQFGGQVRQRYLYTDDACQTEAHLEIREDGTVGGAADQSPESLLQLKALKPGVIQILGVKTSRFLCQRPDGALYGSLHFDPEACSFRELLLEDGYNVYQSEAHGLPLHLPGCKSPHRDPAPRGPARFLPLPGLPPAPPEPPGILAPQPPDVGSSDPLSMVGSQGRSPSYAS",0.0103 nM
8,"134 (protein, Fusion Protein) HGEGTFTSDKSKLLEKRLAHLFIEWLIKGGHKSGKPPPKGGGGGGGSGGGGSGGGGSA[… human IgG4 Fc with changes …]GGGSGSAHPIPDSSPLLQFGGQVRQRYLYTDDACQTEAHLEIREDGTVGGAADQSPESLLQLKALKPGVIQILGVKTSRFLCQRPDGALYGSLHFDPEACSFRELLLEDGYNVYQSEAHGLPLHLPGCKSPHRDPAPRGPARFLPLPGLPPAPPEPPGILAPQPPDVGSSDPLSMVGSQGRSPSYAS",0.0173 nM
9,"146 (protein, Fusion Protein) HGEGTFTSDKSQLLEKRLAHLFIEWLLAGGHKKGKPPPKGGGGGGGSGGGGSGGGGSA[… human IgG4 Fc with changes …]GGGSGSAHPIPDSSPLLQFGGQVRQRYLYTDDACQTEAHLEIREDGTVGGAADQSPESLLQLKALKPGVIQILGVKTSRFLCQRPDGALYGSLHFDPEACSFRELLLEDGYNVYQSEAHGLPLHLPGCKSPHRDPAPRGPARFLPLPGLPPAPPEPPGILAPQPPDVGSSDPLSMVGSQGRSPSYAS",0.0123 nM
10,"147 (protein, Fusion Protein) HGEGTFTSDKSQLLEKRLAHLFIEWLLKGGHSSGRPPPKGGGGGGGSGGGGSGGGGSA[… human IgG4 Fc with changes …]GGGSGSAHPIPDSSPLLQFGGQVRQRYLYTDDACQTEAHLEIREDGTVGGAADQSPESLLQLKALKPGVIQILGVKTSRFLCQRPDGALYGSLHFDPEACSFRELLLEDGYNVYQSEAHGLPLHLPGCKSPHRDPAPRGPARFLPLPGLPPAPPEPPGILAPQPPDVGSSDPLSMVGSQGRSPSYAS",0.0101 nM
11,"143 (protein, Fusion Protein) HGEGTFTSDKSQLLEKRLAHLFIEWLLKGGHSKGKPPPKGGGGGGGSGGGGSGGGGSA[… human IgG4 Fc with changes …]GGGSGSAHPIPDSSPLLQFGGQVRQRYLYTDDACQTEAHLEIREDGTVGGAADQSPESLLQLKALKPGVIQILGVKTSRFLCQRPDGALYGSLHFDPEACSFRELLLEDGYNVYQSEAHGLPLHLPGCKSPHRDPAPRGPARFLPLPGLPPAPPEPPGILAPQPPDVGSSDPLSMVGSQGRSPSYAS",0.0142 nM

# Further lines, results first:
row,EC50,Molecule
1,0.00851 nM,"126 (protein, Fusion Protein) HGEGTFTSDKSKLLEKRAAHLFIEWLIAGGHSSIKPPPKGGGGGGGSGGGGSGGGGSA[… human IgG4 Fc with changes …]GGGSGSAHPIPDSSPLLQFGGQVRQRYLYTDDACQTEAHLEIREDGTVGGAADQSPESLLQLKALKPGVIQILGVKTSRFLCQRPDGALYGSLHFDPEACSFRELLLEDGYNVYQSEAHGLPLHLPGCKSPHRDPAPRGPARFLPLPGLPPAPPEPPGILAPQPPDVGSSDPLSMVGSQGRSPSYAS"
2,0.00848 nM,"132 (protein, Fusion Protein) HGEGTFTSDKSQLLEKRLAHLFIEWLLAGGHSSGKLSPKGGGGGGGSGGGGSGGGGSA[… human IgG4 Fc with changes …]GGGSGSAHPIPDSSPLLQFGGQVRQRYLYTDDACQTEAHLEIREDGTVGGAADQSPESLLQLKALKPGVIQILGVKTSRFLCQRPDGALYGSLHFDPEACSFRELLLEDGYNVYQSEAHGLPLHLPGCKSPHRDPAPRGPARFLPLPGLPPAPPEPPGILAPQPPDVGSSDPLSMVGSQGRSPSYAS"
3,0.00983 nM,"128 (protein, Fusion Protein) HGEGTFTSDKSQLLEKRLAHLFIEWLIKGGHSKGKYPPKGGGGGGGSGGGGSGGGGSA[… human IgG4 Fc with changes …]GGGSGSAHPIPDSSPLLQFGGQVRQRYLYTDDACQTEAHLEIREDGTVGGAADQSPESLLQLKALKPGVIQILGVKTSRFLCQRPDGALYGSLHFDPEACSFRELLLEDGYNVYQSEAHGLPLHLPGCKSPHRDPAPRGPARFLPLPGLPPAPPEPPGILAPQPPDVGSSDPLSMVGSQGRSPSYAS"
4,0.00738 nM,"130 (protein, Fusion Protein) HGEGTFTSDKSQLLEKELAHLFIEWLLAGGHSKGKPPPKGGGGGGGSGGGGSGGGGSA[… human IgG4 Fc with changes …]GGGSGSAHPIPDSSPLLQFGGQVRQRYLYTDDACQTEAHLEIREDGTVGGAADQSPESLLQLKALKPGVIQILGVKTSRFLCQRPDGALYGSLHFDPEACSFRELLLEDGYNVYQSEAHGLPLHLPGCKSPHRDPAPRGPARFLPLPGLPPAPPEPPGILAPQPPDVGSSDPLSMVGSQGRSPSYAS"
5,0.00763 nM,"145 (protein, Fusion Protein) HGEGTFTSDKSQLLEKRLAHLFIEWLIKGGHSSIRPPPKGGGGGGGSGGGGSGGGGSA[… human IgG4 Fc with changes …]GGGSGSAHPIPDSSPLLQFGGQVRQRYLYTDDACQTEAHLEIREDGTVGGAADQSPESLLQLKALKPGVIQILGVKTSRFLCQRPDGALYGSLHFDPEACSFRELLLEDGYNVYQSEAHGLPLHLPGCKSPHRDPAPRGPARFLPLPGLPPAPPEPPGILAPQPPDVGSSDPLSMVGSQGRSPSYAS"
6,0.00735 nM,"139 (protein, Fusion Protein) HGEGTFTSDKSQLLEKRAAHLFIEWLIAGGHSSGKLSPKGGGGGGGSGGGGSGGGGSA[… human IgG4 Fc with changes …]GGGSGSAHPIPDSSPLLQFGGQVRQRYLYTDDACQTEAHLEIREDGTVGGAADQSPESLLQLKALKPGVIQILGVKTSRFLCQRPDGALYGSLHFDPEACSFRELLLEDGYNVYQSEAHGLPLHLPGCKSPHRDPAPRGPARFLPLPGLPPAPPEPPGILAPQPPDVGSSDPLSMVGSQGRSPSYAS"
